The text below walks through data of publication PMC5674072 (2017).

The labels stand for the following.
B1: 3x Flag Matrin 3 wild-type (human) [human] / Ddx39b (UAP56) of NSC-34 cells [mouse (endogenous in NSC-34)] (parent complex)
chain 1: MSKSFQQSSLSRDSQGHGRDLSAAGIGLLAAATQSLSMPASLGRMNQGTARLASLMNLGMSSSLNQQGAHSALSSASTSSHNLQSIFNIGSRGPLPLSSQHRGDADQASNILASFGLSARDLDELSRYPEDKITPENLPQILLQLKRRRTEEGPTLSYGRDGRSATREPPYRVPRDDWEEKRHFRRDSFDDRGPSLNPVLDYDHGSRSQESGYYDRMDYEDDRLRDGERCRDDSFFGETSHNYHKFDSEYERMGRGPGPLQERSLFEKKRGAPPSSNIEDFHGLLPKGYPHLCSICDLPVHSNKEWSQHINGASHSRRCQLLLEIYPEWNPDNDTGHTMGDPFMLQQSTNPAPGILGPPPPSFHLGGPAVGPRGNLGAGNGNLQGPRHMQKGRVETSRVVHIMDFQRGKNLRYQLLQLVEPFGVISNHLILNKINEAFIEMATTEDAQAAVDYYTTTPALVFGKPVRVHLSQKYKRIKKPEGKPDQKFDQKQELGRVIHLSNLPHSGYSDSAVLKLAEPYGKIKNYILMRMKSQAFIEMETREDAMAMVDHCLKKALWFQGRCVKVDLSEKYKKLVLRIPNRGIDLLKKDKSRKRSYSPDGKESPSDKKSKTDGSQKTESSTEGKEQEEKSGEDGEKDTKDDQTEQEPNMLLESEDELLVDEEEAAALLESGSSVGDETDLANLGDVASDGKKEPSDKAVKKDGSASAAAKKKLKKVDKIEELDQENEAALENGIKNEENTEPGAESSENADDPNKDTSENADGQSDENKDDYTIPDEYRIGPYQPNVPVGIDYVIPKTGFYCKLCSLFYTNEEVAKNTHCSSLPHYQKLKKFLNKLAEERRQKKET
chain 2: not shown

The first assay covers variants of B1. The experiment in a line: co-immunoprecipitation (Ddx39b IP) followed by western blot, quantified; NSC-34 stable cell lines; four replicates; WT vs 85: p = 0.0133; read off a plot. Background: Immunoblotting shows a protein as a band on a membrane.
As for chain 1 S85C, the ratio to parent is about 3.6.

In the next assay the parent is B1. As to the kind of experiment: co-immunoprecipitation (Ddx39b IP) followed by western blot, quantified; NSC-34 stable cell lines; four replicates; WT vs 154 p = 0.0760; read off a plot.
Take chain 1 P154S: the ratio to parent is about 3.

Another assay covers variants of B1. As to the kind of experiment: co-immunoprecipitation (Ddx39b IP) followed by western blot, quantified; NSC-34 stable cell lines; four replicates; WT vs 622 p = 0.9993; read off a plot.
Take chain 1 T622A: the ratio to parent is about 0.9.

The next assay covers variants of B1. As to the kind of experiment: co-immunoprecipitation (Ddx39b IP) followed by western blot, quantified; NSC-34 stable cell lines; four replicates; WT vs 115: p = 0.9944; read off a plot.
chain 1 F115C: the ratio to parent is about 0.8.
